Source: PubChem BioAssay AID485281 (National Center for Advancing Translational Sciences (NCATS), 2010)
Among all 350,000 compounds or so, about 260 (0.074%) were called active. The inconclusive results got no clear call from the source; some entries with a clear call stand among them for comparison. Calls follow the shape of the dose curve; as a rule, active = well fitted inhibition curve with a large enough effect; inconclusive = small, poorly fitted or top-dose-only effect; inactive = no such curve, though single readings can be large or run the other way. Where the call is inconclusive, the potency comes from a doubtful curve fit.

Target: Ferritin light chain (Equus caballus) (UniProt P02791)
Assay: qHTS Assay for Identification of Novel General Anesthetics; also: nearly all actives have a fitted effect of over 20% in size
Conditions: apoferritin/1-aminoanthracene competitive binding, fluorescence; activity change, negative = displacement: at 77.5 µM (top of the series)
How it was run: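 Concentration-response curves derived by four-parameter Hill fitting of normalized fluorescence, where compounds displaced 1-AMA from 10 uM horse apoferritin following a brief 10 min room-temperature incubation; propofol titration acted as positive control.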
% is scaled to controls: 0 for no effect and ±100 for the full control effect; potency is read from the fitted curve at half-maximal effect; tags tell the direction and shape of the fitted curve.

UniProt P02791, sequence (P02791 whole entry, looked up): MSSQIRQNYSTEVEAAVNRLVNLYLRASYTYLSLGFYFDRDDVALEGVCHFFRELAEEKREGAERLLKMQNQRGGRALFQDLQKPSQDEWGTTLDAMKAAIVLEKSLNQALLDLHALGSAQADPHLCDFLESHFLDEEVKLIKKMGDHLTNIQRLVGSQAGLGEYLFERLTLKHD

| SMILES | Potency | activity change, negative = displacement |
| --- | --- | --- |
| COc1ccc(NC(=O)Cc2noc3ccc(C)cc23)cc1Cl | inconclusive: 3.98 µM [inhibitor, full curve, poor fit] | – |
| Cc1ccc(S(=O)(=O)Nc2cccc(NC(=O)CN3CCCCC3)c2)cc1 | inconclusive: 25.1 µM [inhibitor, partial curve] | – |
| Cc1[nH]c(=S)sc1Cc1ccc(Cl)c(Cl)c1 | inconclusive: 25.1 µM [inhibitor, partial curve, poor fit] | – |
| O=C(Cc1ccccc1)NCC(=O)N/N=C/c1ccc([N+](=O)[O-])s1 | inconclusive: 39.8 µM [inhibitor, partial curve] | – |
| CC(=O)N(C)c1ccc(C(O)(C(F)(F)F)C(F)(F)F)cc1 | – | inactive: -11.7% |
| CCc1ccccc1NC(=O)CSc1nnc([C@@H](NC(=O)OC(C)(C)C)C(C)CC)o1 (stereo not given in full) | inconclusive: 44.7 µM [inhibitor, single point] | – |
| COc1ccc(F)cc1C(=O)C1CCCN(C(=O)CSc2ccccn2)C1 (stereo not given) | inconclusive: 15.8 µM [inhibitor, partial curve] | – |
| O=C(NC1CCc2ccccc21)c1cc(COc2ccc(F)cc2Cl)on1 (stereo not given) | inconclusive: 6.31 µM [inhibitor, full curve] | – |
| CCCCCCCCCn1ccc(=N)cc1 | – | inactive: -13.3% |
| Cc1nc2c(c(=O)n1CCC1=CCCCC1)c1nc3ccccc3nc1n2/N=C/c1ccco1 | inconclusive: 35.5 µM [inhibitor, partial curve] | – |
| Cc1ccc(OCC(=O)Nc2cccc(S(=O)(=O)N3CCCCCC3)c2)c([N+](=O)[O-])n1 | inconclusive: 35.5 µM [inhibitor, partial curve] | – |
| COc1ccc(/C=N\NC(=O)CCN2CCN(c3ccccc3)CC2)cc1OC | – | inactive: -3.41% |
| O=C(CSc1nc2nn(-c3ccccc3)c(=O)c-2c2n1CCCCC2)NCCCc1ccccc1 | inconclusive: 39.8 µM [inhibitor, partial curve] | – |
| CCCN(C(=O)c1cc2c(=O)oc3ccccc3c2s1)c1ccccc1C | inconclusive: 11.2 µM [inhibitor, partial curve] | – |
| Clc1cccc(Oc2cnc3ccccc3n2)c1 | inconclusive: 35.5 µM [inhibitor, partial curve] | – |
| COc1ccc(C(=O)NNC(=O)CSc2nnc(-c3cccnc3)o2)cc1 | – | inactive: -5.91% |
| COc1cccc(/C=N/NC(=O)CCc2n[nH]c(=O)[nH]c2=O)c1O | – | inactive: 11.3% |
| COc1ccc(-c2noc(-c3ccc(N4CCOCC4)c([N+](=O)[O-])c3)n2)cc1 | inconclusive: 12.6 µM [inhibitor, partial curve] | – |
| Cc1cc(N2CCCC2)nc(-c2ccccc2O)n1 | – | inactive: -7.16% |
| O=C(CC(=O)N/N=C\c1ccc([N+](=O)[O-])cc1)NCCc1ccccc1 | inconclusive: 14.1 µM [inhibitor, partial curve] | – |
| CCc1ccc(N=C2NC(=O)/C(=C/c3cc(OC)c(OC)c(OC)c3)S2)cc1 | inconclusive: 15.8 µM [inhibitor, partial curve] | – |
| CCOc1cc(C)c(S(=O)(=O)Nc2ccc(Cl)cn2)cc1C | inconclusive: 25.1 µM [inhibitor, partial curve] | – |

| SMILES | Potency | activity change, negative = displacement |
| --- | --- | --- |
| COc1cc2c(cc1OC)CN(C(=O)c1ccc(S(=O)(=O)N3CCCCCC3)cc1)CC2 | inconclusive: 50.1 µM [inhibitor, single point] | – |
| CCOC(=O)c1nn(-c2ccc(F)cc2)c(=O)c2c(N)scc12 | inconclusive: 22.4 µM [inhibitor, partial curve] | – |
| CC1=CC(C)(C)Nc2ccc(OC(=O)CN3C(=O)C4CCCCC4C3=O)cc21 (stereo not given) | inconclusive: 22.4 µM [inhibitor, partial curve] | – |
| CC1(C)C(=O)OC(c2cccs2)C(C)(C)C1=O (stereo not given) | inconclusive: 7.08 µM [inhibitor, partial curve] | – |
| CN(C)S(=O)(=O)c1ccc(C(=O)OCc2ccc([N+](=O)[O-])cc2)cc1 | inconclusive: 31.6 µM [inhibitor, partial curve] | – |
| Cc1ccccc1CN1C[C@@H]2C[C@@H](c3cn(C)nc3-c3ccccc3)N3CCC[C@@]23C1=O | inconclusive: 31.6 µM [inhibitor, partial curve] | – |
| CCN(CCCNC(=O)CN(C)S(=O)(=O)c1cccc2nsnc12)c1cccc(C)c1 | inconclusive: 8.91 µM [inhibitor, partial curve] | – |
| CCN(c1ccccc1)S(=O)(=O)c1ccc(C(=O)Nc2nccs2)cc1 | inconclusive: 25.1 µM [inhibitor, partial curve] | – |
| CC(=O)c1ccc(NC(=O)C2CCN(c3nnc(C)c4c(C)n(-c5ccccc5)nc34)CC2)cc1 | – | inactive: -0.18% |
| COC(=O)c1scc(C)c1S(=O)(=O)Nc1ccc(C)cc1 | inconclusive: 39.8 µM [inhibitor, single point] | – |
| O=C1c2ccccc2N2C(=O)c3ccccc3C2N1Cc1ccccc1 (stereo not given) | – | inactive: -17.4% |
| O=S(=O)(Nc1cc(O)cc2cccnc12)c1ccc(Cl)s1 | inconclusive: 28.2 µM [inhibitor, partial curve] | – |
| Cc1cc(SCc2ccc(Cl)cc2)nc(=O)[nH]1 | inconclusive: 35.5 µM [inhibitor, partial curve] | – |
| Oc1oc(-c2ccccc2)nc1C=Nc1ccccc1 | inconclusive: 25.1 µM [inhibitor, partial curve] | – |
| Cc1ccc(O)c(NC(=O)c2noc(C(C)C)c2[N+](=O)[O-])c1 | – | inactive: -14.4% |
| Cc1ccc(S(=O)(=O)c2cn(Cc3ccccc3)c3cc(N4CCCCC4)c(F)cc3c2=O)cc1 | – | inactive: -15.8% |
| Cc1cccc(C(=O)N2CC3(C)CC2CC(C)(C)C3)c1 (stereo not given) | inconclusive: 50.1 µM [inhibitor, single point] | – |
| Cc1ccc(NC(=O)NC2=N/C(=C(/C#N)C(=O)N3CCCC3)c3ccccc32)cc1 | inconclusive: 39.8 µM [inhibitor, partial curve] | – |
| COc1ccc(OCc2cc(C(=O)NCC(C)(C)N3CCOCC3)no2)c(Cl)c1 | inconclusive: 50.1 µM [inhibitor, single point] | – |
| CCc1nnc(NC(=O)CSc2nnc(-c3ccoc3C)n2-c2cccc(C)c2)s1 | inconclusive: 39.8 µM [inhibitor, partial curve] | – |
| Fc1ccccc1-c1nc(N2CCN(c3cccc(Cl)c3)CC2)c2ccccc2n1 | – | inactive: 4.26% |
| CCCCCCCCCCCCCCCCn1cc[n+](CC(C)=O)c1 | inconclusive: 28.2 µM [inhibitor, partial curve] | – |

| SMILES | Potency | activity change, negative = displacement |
| --- | --- | --- |
| NS(=O)(=O)c1ccc(CNc2ncnc3sccc23)cc1 | – | inactive: 3.84% |
| CCOc1ccc(CCNC(=O)c2cc(=O)[nH]c3ccc(S(=O)(=O)N4CCCCC4C)cc23)cc1OCC (stereo not given) | inconclusive: 15.8 µM [inhibitor, partial curve] | – |
| COC(=O)c1cc(C(C)=O)c(C)[nH]c1=O | – | inactive: -0.337% |
| Cc1ccc(OCc2cc(C(=O)N3CCN(C4CCCCC4)CC3)no2)cc1C | inconclusive: 39.8 µM [inhibitor, single point] | – |
| CCn1c(/N=C/c2c[nH]c3ccccc23)nc2ccccc21 | inconclusive: 28.2 µM [inhibitor, single point] | – |
| Cc1ccc(-c2noc(CCC(=O)N(C)c3ccccc3F)n2)cc1 | inconclusive: 28.2 µM [inhibitor, partial curve] | – |
| COCCNC(=O)Cn1ccc2cc(S(=O)(=O)N3CCCCCC3)ccc21 | inconclusive: 17.8 µM [inhibitor, partial curve] | – |
| CCN1C(=O)[C@H]2[C@H]3[C@H](O)[C@H](O)C/C(=N/NC(=O)OCc4ccc(OC)cc4)[C@H]3CC[C@@H]2C1=O | – | inactive: 6.09% [at 15.3 µM] |
| Cc1csc(NC(=O)c2cccc(Cn3nc(C)c(Br)c3C)c2)n1 | inconclusive: 3.55 µM [inhibitor, full curve] | – |
| Cc1ccc(CN(C(=O)COc2ccccc2Cl)c2ccccn2)o1 | inconclusive: 31.6 µM [inhibitor, partial curve] | – |
| O=C(CNCCC1=CCCCC1)Nc1ccc(N2CCCCCC2)cc1 | inconclusive: 39.8 µM [inhibitor, partial curve] | – |
| Cc1cc(C)c2sc(N(CCN(C)C)C(=O)c3c(F)cccc3F)nc2c1 | inconclusive: 17.8 µM [inhibitor, partial curve] | – |
| O=C(Nc1nc(-c2ccc(F)c(F)c2)cs1)Nc1ccc(F)cc1F | – | inactive: 3.02% |
| Clc1ccc(Cn2ccc(C3CC3)n2)cc1 | inconclusive: 28.2 µM [inhibitor, partial curve] | – |
| O=C(Nc1cccc(-c2nc3ccccc3[nH]2)c1)c1ccc(C(=O)Nc2cccc(-c3nc4ccccc4[nH]3)c2)cc1 | inconclusive: 1.41 µM [inhibitor, full curve] | – |
| CCCCn1c(CNC(=O)C23CC4CC(CC(C4)C2)C3)nnc1SCC(=O)Nc1ccc(C)cc1 | inconclusive: 44.7 µM [inhibitor, partial curve] | – |
| COCCSc1nc2c([nH]c3ccccc32)c(=O)n1-c1ccc(OC)c(OC)c1 | inconclusive: 2.51 µM [inhibitor, partial curve] | – |
| Cc1nn(C)c(Oc2ccccc2)c1[N+](=O)[O-] | inconclusive: 31.6 µM [inhibitor, single point] | – |
| COc1cc(CNCCN2CCOCC2)ccc1OCc1ccc(Cl)cc1Cl | inconclusive: 8.91 µM [inhibitor, partial curve] | – |
| Cc1ccc(CNC(=O)Nc2cc(C(=O)NCc3cccc(F)c3)ccc2N2CCCC2)cc1 | inconclusive: 50.1 µM [inhibitor, partial curve, poor fit] | – |
| Cc1cc2c(cc1S(=O)(=O)Nc1cccc(C#N)c1)OCC(=O)N2 | – | inactive: -7.69% |
